Measurements from patent US11203633B2, “Polynucleotides encoding antibodies or antigen binding fragments thereof that bind pseudomonas perv” (priority 2011, dated 2021).

Legend:
[1] = test system: P. aeruginosa (6077 exoU+; 6206) lysis of rabbit red blood cells; test: Rabbit red blood cell (RBC) lysis inhibition assay; type: cell-based, Pseudomonas aeruginosa
Protocol: Percent inhibition of cytotoxicity analysis was analysed for the parental V2L2 mAb, mAb166 (positive control) and R347 (negative control), where the antibodies were administered to cultured broncho-epithelial cell line A549 combined with log-phase P. aeruginosa strain 6077 (exoU+) at a MOI of approximately 10. A549 lysis was assayed by measuring released lactate dehydrogenase (LDH) activity and lysis in the presence of mAbs was compared to wells without mAb to determine percent inhibition. The V2L2 mAb, mAb166 (positive control) and R347 (negative control) were evaluated for their ability to prevent lysis of RBCs, where the antibodies were mixed with log-phase P. aeruginosa 6077 (exoU^+) and washed rabbit red blood cells (RBCs) and incubated for 2 hours at 37°. Intact RBCs were pelleted and the extent of lysis determined by measuring the OD405 of the cell-free supernatant. Lysis in the presence of anti-PcrV mAbs was compared to wells without mAb to determine percent inhibition. The positive control antibody, mAb166, is a previously characterized anti-PcrV antibody (J Infect Dis. 186: 64-73 (2002), Crit Care Med. 40: 2320-2326 (2012)).

[2] = test system: P. aeruginosa strains (PAO1, 33356, 6294, 6077, 6206, PA103A); test: Acute pneumonia model in mice, survival; type: in vivo, Pseudomonas aeruginosa
Protocol: (§1) Antibodies or PBS were administered 24 hours before infection in each model. P. aeruginosa acute pneumonia, keratitis, and thermal injury infection models were performed as described (DiGiandomenico, A., et al., Proc Natl Acad Sci USA 104, 4624-4629 (2007)), with modifications. In the acute pneumonia model, BALB/c mice (The Jackson Laboratory) were infected with P. aeruginosa strains suspended in a 0.05 ml inoculum. In the thermal injury model, CF-1 mice (Charles River) received a 10% total body surface area burn with a metal brand heated to 92° C. for 10 seconds. Animals were infected subcutaneously with P. aeruginosa strain 6077 at the indicated dose. For organ burden experiments, acute pneumonia was induced in mice followed by harvesting of lungs, spleens, and kidneys 24 hours post-infection for determination of CFU.
The in vivo effect of administration of an anti-PcrV antibodies was studied in mice using an acute pneumonia model. Groups of mice were treated with either increasing concentrations of the V2L2 antibody, a positive control anti-PcrV antibody (mAb166), or a negative control (R347), as shown in FIG. 13 (A-B). Groups of mice were also treated with either increasing concentrations of the V2L2 antibody, the PcrV antibody PcrV-02, or a negative control (R347), as shown in FIG. 13 (C-D). Twenty-four hours after treatment, all mice were infected with 5×10^7 CFU (C) Pseudomonas aeruginosa 6294 (06) or (D) PA103A (O11).
Groups of mice were treated with either increasing concentrations of the 11A6, 3G5 or V2L7, the same concentrations of 29D2, 1F3, 1E6, V2L2, LE10, SH3, 4A8, 2H3, or 21F1, increasing concentrations of the 29D2, increasing concentrations of the V2L2, the PcrV antibody PcrV-02, or a negative control (R347), as shown in FIG. 13 (E-H). Mice were injected intraperitoneally (IP) with mAbs 24 hours prior to intranasal infection with Pseudomonas strain 6077 (1×10^6 CFU/animal).

[3] = test system: P. aeruginosa strains (PAO1, 33356, 6294, 6077, 6206); test: Acute pneumonia model in mice, organ burden (CFU in lung, spleen, kidneys); type: in vivo, Pseudomonas aeruginosa; details: 6206 9.5×10^5 CFU; 15.0, 5.0 and 1.0 mg/kg; FIG. 25D
Protocol: as §1
Organ burden of Pseudomonas-infected mice was also studied in response to administration of V2L2. FIG. 14 (A) Mice were treated with either 1 mg/kg R347 (control), or 1 mg/kg, 0.2 mg/kg, or 0.07 mg/kg of V2L2 and then were infected intranasally with 1.2×10^6 cfu of Pseudomonas 6206. FIG. 14 (B) Mice were also treated with either 15 mg/kg R347 (negative control); 15.0 mg/kg, 5.0 mg/kg, or 1.0 mg/kg mAb166 (positive control); or 5.0 mg/kg, 1.0 mg/kg, or 0.2 mg/kg V2L2 and then were infected intranasally with 5.5×10^6 cfu of Pseudomonas 6206. […]

[4] = test system: P. aeruginosa PAO1 strain (PAO1.lux) attachment to A549 cells; test: Cell attachment assay (PAO1.lux to A549 cells); type: cell-based, Pseudomonas aeruginosa; details: Bs4-WT vs Bs4-GL vs Bs4-GLO; FIG. 27B
Protocol: Anti-Psl antibodies were added to a confluent monolayer of A549 cells (an adenocarcinoma human alveolar basal epithelial cell line) grown in opaque 96-well plates (Nunc Nunclon Delta). Log-phase luminescent P. aeruginosa PAO1 strain (PAO1.lux) was added at an MOI of 10. After incubation of PAO1.lux with A549 cells at 37° C. for 1 hour, the A549 cells were washed, followed by addition of LB+0.5% glucose. Bacteria were quantified following a brief incubation at 37° C. as performed in the OPK assay described in Example 2. Measurements from wells without A549 cells were used to correct for non-specific binding.

[5] = test system: luminescent P. aeruginosa serogroup 05 strain (PAO1.lux); test: Opsonophagocytic killing (OPK) assay, PAO1.lux; type: cell-based, Pseudomonas aeruginosa; details: Bs4-WT vs Bs4-GL vs Bs4-GLO; FIG. 27A
Protocol: This example describes the evaluation of prioritized human IgG1 antibodies to promote OPK of P. aeruginosa. […] OPK assays were performed as described in (DiGiandomenico, A., et al., Infect Immun 72, 7012-7021 (2004)), with modifications. Briefly, assays were performed in 96-well plates using 0.025 ml of each OPK component; P. aeruginosa strains; diluted baby rabbit serum; differentiated HL-60 cells; and monoclonal antibody. In some OPK assays, luminescent P. aeruginosa strains, which were constructed as described (Choi, K. H., et al., Nat Methods 2, 443-448 (2005)), were used. Luminescent OPK assays were performed as described above but with determination of relative luciferase units (RLUs) using a Perkin Elmer ENVISION Multilabel plate reader (Perkin Elmer).

B1: Bs4-V2L2-2C: W4-RAD scFv inserted in hinge region of V2L2 IgG; light and heavy chain SEQ ID NOS: 327 and 328 (antibody)
heavy: EMQLLESGGGLVQPGGSLRLSCAASGFTFSSYAMNWVRQAPGEGLEWVSAITISGITAYYTDSVKGRFTISRDNSKNTLYLQMNSLRAGDTAVYYCAKEEFLPGTHYYYGMDVWGQGTTVTVSSASTKGPSVFPLAPSSKSTSGGTAALGCLVKDYFPEPVTVSWNSGALTSGVHTFPAVLQSSGLYSLSSVVTVPSSSLGTQTYICNVNHKPSNTKVDKRVEPKSCGGGGSGGGGSEVQLLESGPGLVKPSETLSLTCNVAGGSISPYYWTWIRQPPGKCLELIGYIHSSGYTDYNPSLKSRVTISGDTSKKQFSLHVSSVTAADTAVYFCARADWDLLHALDIWGQGTLVTVSSGGGGSGGGGSGGGGSGGGGSEIVLTQSPSSLSTSVGDRVTITCRASQSIRSHLNWYQQKPGKAPKLLIYGASNLQSGVPSRFSGSGSGTDFTLTISSLQPEDFATYYCQQSYSFPLTFGCGTKLEIKGGGGSGGGGS[human IgG1 Fc omitted here]
light: AIQMTQSPSSLSASVGDRVTITCRASQGIRNDLGWYQQKPGKAPKLVIYSASTLQSGVPSRFSGSGSGTDFTLSISSLQPDDFATYYCLQDYNYPWTFGQGTKVEIKRTVAAPSVFIFPPSDEQLKSGTASVVCLLNNFYPREAKVQWKVDNALQSGNSQESVTEQDSKDSTYSLSSTLTLSKADYEKHKVYACEVTHQGLSSPVTKSFNRGEC
modifications: Bs4-V2L2-C2 VL
inhibition of RBC lysis compared to the parental V2L2 antibody ([1]; 6206, FIG. 19C): inhibited RBC lysis at levels similar to the parental V2L2 antibody | difference in functional activity, RBC lysis anti-cytotoxicity assay ([1]; Bs4-WT vs Bs4-GL vs Bs4-GLO, FIG. 27C): No in vitro difference in functional activities | survival Bs4-V2L2-2C vs. Bs2-V2L2, Log-rank test P ([2]; 6206, 0.5 mg/kg, FIG. 21B): 0.0002 | survival Bs4-V2L2-2C vs. Bs3-V2L2, Log-rank test P ([2]; 6206, 0.5 mg/kg, FIG. 21D): < 0.0001 | survival Bs4-V2L2-2C vs. antibody mixture, Log-rank test P ([2]; 6206, 1 mg/kg vs mixture 0.5 mg/kg each, FIG. 21E): 0.0002 | survival Bs4-V2L2-2C vs. Bs2-V2L2, Log-rank test P ([2]; 6206, 1 mg/kg, FIG. 21B): 0.034 | survival Bs4-V2L2-2C vs. antibody mixture, Log-rank test P ([2]; 6206, 2 mg/kg vs mixture 1 mg/kg each, FIG. 21E): 0.0012 | survival activity in comparison to the W4 and V2L2 antibody mixture ([2]; 6206, Bs4-V2L2-2C 2 and 1 mg/kg, FIG. 21E): greater activity in comparison to the antibody mixture at both 1.0 and 0.5 mg/kg | survival activity in comparison to Bs2-V2L2 ([2]; 6206, FIG. 21B): greater activity in comparison to Bs2-V2L2 at both 1.0 and 0.5 mg/kg | survival activity in comparison to Bs2-V2L2 ([2]; 6206, FIG. 21C): appeared to have greater activity in comparison to Bs2-V2L2 at 1.0 mg/kg (results are not statistically significant) | survival activity in comparison to Bs3-V2L2 ([2]; 6206, FIG. 21D): greater activity in comparison to Bs3-V2L2 at 0.5 mg/kg | protection against lethal pneumonia, ranking of constructs ([2]; strain 6206 (ExoU+), 0.1-15 mg/kg, FIG. 21I): most effective in protection against lethal pneumonia | bacterial clearance from the lung [3]: rapid and efficient bacterial clearance was observed from the lung | bacterial dissemination to the spleen and kidneys [3]: bacterial dissemination to the spleen and kidneys were also ablated | difference in functional activity, anti-cell attachment assay [4]: No in vitro difference in functional activities | difference in functional activity, opsonophagocytic killing assay [5]: No in vitro difference in functional activities
